Laboratory results taken from the RNAGym collection of RNA variant scans (doi:10.1093/nar/gkz1192).
The source gives no read counts; variants with many changes may rest on few reads.

B1: CPEB3 Ribozyme (parent)
chain: UAACAGGGGGCCACAGCAGAAGCGUUCACGUCGCAGCCCCUGUCAGAUUCUGGUGAAUCUGCGAAUUCUGCUGUAUAUCUC

Variants of: B1
Experiment: self-cleavage, relative activity (ratio to wild type); higher = more cleavage; in vitro, sequencing
Outline: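 CPEB3 self-cleaving ribozyme mutant libraries were made by rounds of error-prone PCR, barcoded, and transcribed in vitro with T7 RNA polymerase for 5 hours at 37°C. Cleavage occurred during transcription and a 15 min DNase I step before EDTA stop. RNAs were reverse transcribed with template switching and Illumina-sequenced, with DNA sequencing mapping barcodes to variants. Relative activity is the variant's cleaved/total read fraction divided by wild type's (minimum 5 reads), averaged across three batches.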

Row | Variant | self-cleavage
1 | UAACAGGGGGUCACAGCAGAAGCCUUCACGUCGCAGCCCCUGUCAGAUUCAGGUGAAUCUGCGAAUUCUGCUGUAUAUCUC [C11U G24C U51A] | 0.2
2 | UAACAGGGGGUCACAGCAGAAGCGUUCACGUCUCAGCCCCUGUCAGAUUCUGGUGGAUCUCCGAAUUCUGCCGUAUAUCUC [C11U G33U A56G G61C U72C] | 0.05
3 | UAACAGGGGGUCACAGCAGAAGCGUUCACGUCGCAGCCCCUAUCAGAUUCUGGUGAAUCUGCGAAUCCUGCUGUAUAUCUC [C11U G42A U67C] | 0.11
4 | UAACAGGGGGUCACAGCAGAAGCGUUCACGUCGCAGCCCCUGUCAUAUUCUGGUGAAUCUGCGAAUCCUGCUGUAAAUCUC [C11U G46U U67C U76A] | 0.06
5 | UAACAGGGGGUCACAGCAGAAGCGACCACGUCGCAGCCCGCGUCAGAUUCUGGUGAAUCUGCGAAUUCUGCUGUAUACCUC [C11U U25A U26C C40G U41C U78C] | 0.04
6 | UAACAGGGGGUCACAGCAGAAGCGCUCACGUCGCAGCCCCUGUCAGAUUCUGGUGAAUCUGCGUAUUCUGCUGUAUAUCAC [C11U U25C A64U U80A] | 0.05
7 | UAACAGGGGGUCACAGCAGAAGCGCUCACGUAGCAGCCCCUGUCAGAUUCUGGUGAAUCUGCGAAUUCUGCAGUAUAUCUC [C11U U25C C32A U72A] | 0.04
8 | UAACAGGGGGUCACAGCAGAAGCGCUCACGUCGUAGCCCCUGUCGGUUUCUGGUGAAUCUGCGAAUUCAGCCGUAUAUCUC [C11U U25C C34U A45G A47U U69A U72C] | 0.04
9 | UAACAGGGGGUCACAGCAGAAGCGUACACGUCGCAGCCCCUGUCAGUUUCUGGUGAAUCUGCGUAUUCUGCUGUAUAUCAC [C11U U26A A47U A64U U80A] | 0.05
10 | UAACAGGGGGUCACAGCAGAAGCGUACACGUCGCAGCCCCUGCCAGAUUCUGGUGGAUCUGCGAAUUGUGCUGUAGAUCUC [C11U U26A U43C A56G C68G U76G] | 0.05
11 | UAACAGGGGGUCACAGCAGAAGCGUCCUCGUCGCAUCCCCUGUCAGAUUCUGGUGAAUCUGCGAAUUCAGCCGUAUAUCUC [C11U U26C A28U G36U U69A U72C] | 0.05
12 | UAACAGGGGGUCACAGCAGAAGCGUCCACGUCGCAGCCCCUGUCGGAUUCUGGUGAAUCUGUGAAUUCUGCUGUAUAUCUC [C11U U26C A45G C62U] | 0.28
13 | UAACAGGGGGUCACAGCAGAAGCGUCCACGUCGCAGCCCCUGUCAGAUUCUGGUGAAUCUGCGAUUUCUACUGUUUAUCUC [C11U U26C A65U G70A A75U] | 0.04
14 | UAACAGGGGGUCACAGCAGAAGCGUUCACGUCGCAGCCCCCGUCAGGUUCUGGUGAAUCUGCGAAUUCUGCUGUAUACCUC [C11U U41C A47G U78C] | 0.36
15 | UAACAGGGGGUCACAGCAGAAGCGUUCACGUCGCAGCCCCUGUCAGAAUCUGGUGAAUCUGCGGAUUCUGCUGUAUAUCUC [C11U U48A A64G] | 0.3
16 | UAACAGGGGGUCACAGCAGAAGCGUUCACGUCGCAGCCCCUGUCAGACUCUGGUGAAUCUGCGAAAUCUGCUGUAUAUCUC [C11U U48C U66A] | 0.17
17 | UAACAGGGGGUCACAGCAGAAGCGUUCACGUCGCAGCCCCUGUCAGAUUCUGGCGAAUCUGCGAAUUCCGCUGUAUAUCUC [C11U U54C U69C] | 0.08

Row | Variant | self-cleavage
18 | UAACAGGGGGUCACAGCAGAAGCGUUCACGUCGCAGCCCCUGUCAGAUUCUGGUGAAUCCGCGAAUUCCGCUGUACUUCUC [C11U U60C U69C U76C A77U] | 0.12
19 | UAACAGGGGGCACCAGCAGAAGCGCUCACGUCGCAGCCCCUGUCAGGUUCUGGUGAACCUGCGAAUUCUGCUGUGUAUCUC [C12A A13C U25C A47G U58C A75G] | 0.08
20 | UAACAGGGGGCAGCUGCAGAAGCGUUCACGUCGCAGCCCCUGUCAGAUUCUGGUGAAUCUGCGAAUUCUGCUGUAUAUCUC [C12A A13G A15U] | 0.99
21 | UAACAGGGGGCAGCAGCGGAAGCGUUCACGUCGCAGCCCCUGUCAGAUUGUGGUGAAUCUGCGAAUUCCGCUGUAUACCUC [C12A A13G A18G C50G U69C U78C] | 0.53
22 | UAACAGGGGGCAGCAGCAGAAGCGUACACGUCGCAGCCCCUGUCAGACUCUGGUGAAUCUGCGAGUUCUGCUGUAUAUCUC [C12A A13G U26A U48C A65G] | 0.11
23 | UAACAGGGGGCAGCAGCAGAAGCGUUCACGUCGCAGCCCCUGUCAGAUUCUGGAGAAUCUGCGAAUUCAGCCGUAUAUCUC [C12A A13G U54A U69A U72C] | 0.46
24 | UAACAGGGGGCAUCAGCAGAAGCGUUCACGUCGCAGCCCCUGUCAGAUUCUGGUGAAUCUGCGAAUUCUGCUAUAUAUCUC [C12A A13U G73A] | 1.01
25 | UAACAGGGGGCAUCAGCAGAAGCGCUCACGUCGCAGCCCCUGUCAGAUUCUGGUGAGUCUGCGAAUUCUGCUGUAUAUCUC [C12A A13U U25C A57G] | 0.2
26 | UAACAGGGGGCAUCAGCAGAAGCGUCCACGACGCAGCCCCUGCCAGAUUCUGGUGAAUCUGCGAAUUCUGCUGUGUAACUC [C12A A13U U26C U31A U43C A75G U78A] | 0.08
27 | UAACAGGGGGCAACGGCAGAAGCGUUCACGUCGCAGCACCUGCCAGAUUCUGGUGAACCUGCGAAUUCCGCUGUAUAUCUC [C12A A15G C38A U43C U58C U69C] | 0.04
28 | UAACAGGGGGCAACGGCAGAAGCGUUCACAUCGCAGCCCCUGUCAGAUUCUGGCGAAUCUGCGAAUUCUGCUGUAUACCUC [C12A A15G G30A U54C U78C] | 0.12
29 | UAACAGGGGGCAACGGCAGAAGCGUUCACGUCGCAGCCCCUGCCAGAUUCCGGUGAGUCUGCGAAUUCUGCUGUAUAUCUC [C12A A15G U43C U51C A57G] | 0.26
30 | UAACAGGGGGCAACAGCGGAAGCGUUCACGUCGCGGCCCCUGUCAGAUUCUGGUGAAUCUGCGAAUUCUGCUGUAUAUCUC [C12A A18G A35G] | 0.7
31 | UAACAGGGGGCAACAGCUGAAGCGUUCACGUCGCAGCCCCUGUCAGAUUCUGGCGAAACUGCGCAUUCUGCUGUAUAUCUC [C12A A18U U54C U58A A64C] | 0.17
32 | UAACAGGGGGCAACAGCAGGAGCGUACACGUCGUAGCCCCUGUCAGAUCCUGGUGGAUCUGCGAAUUCUGCUGUAUAUCUC [C12A A20G U26A C34U U49C A56G] | 0.1
33 | UAACAGGGGGCAACAGCAGGAGCGUUCACGUCGCAGCCCCUGUCAGAUGCUGGUGAAUCUGCGAAUUCUGCUGUGUAUCUC [C12A A20G U49G A75G] | 0.47
34 | UAACAGGGGGCAACAGCAGUAGCGUUCACGUCGCAGCCCCUGUCAGGUUCUGGUGAAUCUGCGAAUUCAGCUGUAUAUCUC [C12A A20U A47G U69A] | 0.41
